From ChEMBL document CHEMBL4888484, “Replenishing the malaria drug discovery pipeline: Screening and hit evaluation of the MMV Hit Generation Library 1 (HGL1) against asexual blood stage Plasmodium falciparum ,using a nano luciferase reporter read-out” (2022) come the findings set out here.

Hit rate of the full screen: of about 150,000 compounds, about 540 (0.36%) showed an effect of 50% or more. Some of the results follow.

In the assay the test system is Plasmodium falciparum. As to the kind of experiment: Primary screen in NF54 nanoGlo assay, in single point, at 2uM, 72h; a lower Z score goes with more inhibition. The class given is functional, Erythrocyte. The settings on record: timepoint 72 hour.
Regarding `CN([C@H]1CCc2ccccc21)S(=O)(=O)c1ccc2c(c1)OCCCO2`, the “% Inhibition” value was determined as 3% and the Z score is -0.53.
On to `CN(Cc1ccc2cc[nH]c2c1)C[C@H]1C[C@@H]1C(=O)O`, for which the “% Inhibition” value is given as -16% and the Z score is given as 2.23.
The like results for `Cc1ccccc1-c1nc(OC(C)C)nn1-c1cccc(NC(=O)c2ccccc2F)c1` were, in that order, -12% and 1.95.
For the molecule `CC1CCN([C@@H](CNC(=O)c2cccs2)c2cccs2)CC1`, the “% Inhibition” value is reported as -8% and the Z score is listed as 0.69.
The matching figures for `CC(=O)c1ccc(-c2ccc(C(=O)NCc3ccncc3)o2)cc1`: -11% and 1.41.
Take `CCCN1C=NS(=O)(=O)c2cc(C(=O)NC3CCCCC3)ccc21`: the “% Inhibition” value is listed as -10% and the Z score stood at 1.64.
The like results for `COc1ccc(NC(=O)[C@H]2CCCN(S(=O)(=O)Cc3ccccc3Cl)C2)c(OC)c1` were, in that order, -1% and 0.13.
With `Cc1cnc(-c2cccnc2)n1C[C@H]1CCN(C(=O)CC2CCCC2)C1`, the “% Inhibition” value is reported as -3% and the Z score turned out to be 0.53.
On to `c1c[nH]c(-c2ccc(CN3CCCCC3)s2)n1`, for which the “% Inhibition” value came to 2% and the Z score is reported as -0.16.
The matching figures for `O=C1NCCC2(CCN(c3nnnn3CC3=CCCCC3)CC2)O1`: -12% and 2.18.
As for `CCc1ccc(C(=O)NCC2CN(C(=O)OC(C)(C)C)CC2O)cc1` (stereo unspecified), the “% Inhibition” value is -7% and the Z score was 0.95.
As for `C[C@@H](Cn1cncn1)c1ncnn1C1Cc2ccccc2C1`, the “% Inhibition” value was 1% and the Z score is -0.22.
In the case of `CC(C)n1nnnc1-c1ccccc1NS(=O)(=O)N1CCC[C@@H]1C`, the “% Inhibition” value is listed as -7% and the Z score is recorded as 1.34.
For the molecule `O=C(c1cc(-c2ccccc2)on1)N1CCCN(C2CCC2)CC1`, the “% Inhibition” value is -18% and the Z score came out at 3.15.
The like results for `CC(C)C(=O)N(Cc1cc(NC(=O)C2CCC2)ccc1N(C)C)CC1CC1` were, in that order, -8% and 1.16.
The like results for `CC(C)c1cnc(CN2C(=O)C[C@H](Cc3ccc(F)cc3)C2=O)o1` were, in that order, 3% and -0.34.
Regarding `Cc1nc(C#N)cc(N[C@H](C(N)=O)C(C)C)n1`, the “% Inhibition” value is -10% and the Z score was determined as 0.82.
The like results for `Cc1nnc(CN[C@@H](Cc2ccccc2)C2CCCC2)n1C` were, in that order, -15% and 2.73.
The like results for `CCOc1ccc([C@@H]2CC(c3ccc(C)cc3)=NN2C(=O)CN2CCOCC2)cc1` were, in that order, -5% and 0.87.
The matching figures for `C[C@H](NC(=O)C1(C)COC1)c1ccn(C)n1`: -10% and 1.18.
Turning to `CCN=C(NCCCOCC1CCCO1)NC(C)CC` (stereo unspecified), the “% Inhibition” value was -2% and the Z score is 0.16.
The like results for `Cn1ncnc1[C@@H](NC(=O)COc1ccc(F)cc1)C1CC1` were, in that order, -18% and 1.82.
Turning to `Cc1ccnc(NC(=O)Nc2cn[nH]c2)c1`, the “% Inhibition” value came to 1% and the Z score is -0.12.
The matching figures for `CCCC(CCC)NC(=O)c1cncn1-c1cccc(-c2cc(Cl)ccc2OC)c1`: 4% and -0.44.
On to `COCCN1CC[C@H](CN(C)Cc2ccc(OC)cc2C)C1`, for which the “% Inhibition” value was 4% and the Z score is recorded as -0.42.
Consider `O=C(NCCc1c[nH]cn1)[C@H](c1ccccc1)n1c(=O)[nH]c2ccccc2c1=O`, for which the “% Inhibition” value was -1% and the Z score amounted to 0.17.
For `CC(=O)N1CCO[C@@H](CNC(=O)c2ccc(-c3cc(N)ccn3)cc2)C1`, the “% Inhibition” value was -4% and the Z score is 0.55.
For `CN1CCC(CN(CCc2ccccc2)C(=O)c2cn3cc(Cl)ccc3n2)CC1`, the “% Inhibition” value is on record as -19% and the Z score was determined as 2.8.
The matching figures for `COc1ccc(-n2nc3c(N4CCCC(C(=O)NCC(C)c5ccccc5)C4)nnc(C)c3c2C)cc1` (stereo unspecified): 9% and -1.08.
The matching figures for `CCN1C(=O)C2(CCN(C(=O)Cc3ccccc3F)CC2)C[C@H]1C(=O)NCCOC`: -6% and 0.72.
For the molecule `CCc1cnccc1NC(=O)CCCC1CCOCC1`, the “% Inhibition” value was -3% and the Z score turned out to be 0.38.
The matching figures for `CN1CC2CC[C@H](CC1=O)N2C(=O)CC1CC1`: -4% and 0.66.
The like results for `Cc1ccccc1C(=O)NCc1nn(C2CCCC2)c2c1COCC2` were, in that order, 29% and -0.69.
As to `C[C@@H]1CN(Cc2ccccc2OCC(=O)N2CCCCC2)[C@@H](C)CN1`, the “% Inhibition” value is -10% and the Z score was found to be 2.05.
In the case of `CN1C[C@H](CC(=O)N2CCCC2)Oc2ccc(C(=O)N3CCCC3)cc21`, the “% Inhibition” value is reported as -2% and the Z score is recorded as 0.47.
Take `CCC[C@@]1(C)C(=O)NCCN1Cc1ccco1`: the “% Inhibition” value is on record as 2% and the Z score was -0.15.
The like results for `O=C(c1cccc(Cl)c1)[C@H]1CCCN(S(=O)(=O)c2ccc(F)c(F)c2)C1` were, in that order, 2% and -0.44.
The matching figures for `COc1ccc(C(=O)N2CC[C@](C)(O)[C@H](C)C2)o1`: 1% and -0.27.
The matching figures for `CC(=O)N[C@@H](CC(C)C)C(=O)N1CCN(Cc2ccc(-c3noc(C4CCCC4)n3)cc2)CC1`: 2% and -0.25.
As for `CCN(CC)c1ccc(NC(=O)c2cnn(-c3ccc(=O)[nH]n3)c2C(F)(F)F)cn1`, the “% Inhibition” value is reported as -16% and the Z score stood at 2.66.
As for `Cn1ncc2c(N(Cc3cccnc3)C3CC3)ncnc21`, the “% Inhibition” value came out at 5% and the Z score was -0.61.
Regarding `Cc1nnc(CCNC(=O)c2cnc(-c3cccs3)nc2)s1`, the “% Inhibition” value is given as -14% and the Z score worked out at 2.66.
As to `Cc1c(CNC[C@H]2CCCCN2C(C)C)cnn1C`, the “% Inhibition” value is -16% and the Z score is 1.81.
